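48-hour exposure; five concentrations; linearly interpolated endpoints. Abbreviation: GI50, concentration required for 50% inhibition of growth. TGI: concentration producing complete growth inhibition.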
test system: NCI-H322M lung; assay: growth of human tumour cells (NCI), 48 h

Row | SMILES | GI50 | TGI
1 | CCOC(=O)c1c(NC(=O)c2ccc(C(F)(F)F)cc2)sc2c3c(ccc12)OCN(C)C3 | 1.69 µM | 3.1 µM
2 | CCOc1ccc([C@H]2C(C(=O)c3ccc(Cl)cc3)C3(N[C@@H]2c2ccccc2)C(=O)Nc2ccc(Br)cc23)cc1 (stereo partly specified) | 14.8 µM | 28.7 µM
3 | N#C/C(=C\c1ccc(-c2ccc(F)cc2)o1)C(=O)Nc1ncc(Cc2ccc(Cl)cc2Cl)s1 | 4.23 µM | > 100 µM

Reference: PubChem BioAssay (NCI)
